Results as given in the supplement of paper PMC10338343.
± gives the standard deviation. The entries are a selection whose mix differs from that of the whole data set.

tested on: MIWI (PIWIL1) piRISC loaded with L1MC piRNA (30 nt); test: pre-steady-state target cleavage rate (min^-1); MIWI and MILI are mouse PIWI proteins and EfPiwi is from a freshwater sponge; tags in brackets are library labels; higher = faster piRNA-guided slicing of the target; conditions: guide: L1MC piRNA 5'p-UAACUAAAUACUAUGCAAGCUGUAGGUCCU; auxiliary factor: none (no GTSF1)
In short: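 A transcribed, DNA-blocked target RNA library […] was incubated at 33 °C for 0–8 or 0–960 min with 1 nM active affinity-purified piRISC carrying one synthetic guide, in HEPES–potassium acetate buffer with or without 500 nM GTSF1 partner protein. Uncleaved targets were then sequenced and normalised to depth and to weakly complementary targets. Data from three trials were pooled, with k3 capped at 0.0001 min^-1, and a burst-and-steady-state fit yielded the pre-steady-state cleavage rate.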
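Further: 1 nM active piRISC with 0.1 nM target library at 33 °C single turnover.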

Going from UGGACCUACAGCUAGCAUAGUAUUUAGUUA to UCCUGGAUGUCGAACGUAUCUAUUUAUUA, the “pre-steady-state target cleavage rate” value falls from 0.0334 ± 0.0077 to less than 0.0001.

For “UCCUGGAUGUCGAACGUAUCAAUUUAGUUU [g2:g9:cont:t1U]”, the “pre-steady-state target cleavage rate” value was less than 0.0001.
